# Some of the results follow. The full chains were built here from the parent and the listed change. Values near 0.05 are background.
# B1: TEV protease; numbered along this chain (parent)
# chain: MGESLFKGPRDYNPISSSICHLTNESDGHTTSLYGIGFGPFIITNKHLFRRNNGTLVVQSLHGVFKVKDTTTLQQHLVDGRDMIIIRMPKDFPPFPQKLKFREPQREERICLVTTNFQTKSMSSMVSDTSCTFPSGDGIFWKHWIQTKDGQCGSPLVSTRDGFIVGIHSASNFTNTNNYFTSVPKNFMELLTNQEAQQWVSGWRLNADSVLWGGHKVFMVKPEEPFQPVKEATQL
# Variants of: B1
# Assay: raw area under fraction-flipped curve 0-4 h after induction (AUC4h, not background-subtracted), DNA-recorder readout of cleavage of the substrate (dimensionless); higher = more cleavage of the substrate by the protease variant
# Settings: temperature: 34 °C; time window: 0-4 h after rhamnose induction
# Procedure: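 In vivo DNA recorder in E. coli TOP10(DE3) ΔrhaA at 34 °C. Each TEVp single-site mutant (parent TEVp 0) is paired with a single-site variant of the 7-mer TEVs (canonical ENLYFQ|S). The substrate sits between flexible linkers in a Bxb1-sfGFP-TEVs-SsrA fusion, so cleavage stabilises Bxb1 and speeds flipping of a recombination array, read by NGS. The value is the raw area under the fraction-flipped curve over 0-4 h after rhamnose induction (AUC4h), with ≥20 reads per time point. It is not background-subtracted; inactive controls average about 0.047.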
# 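Also: Bxb1 expression induced with 0.2% (w/v) L-rhamnose at OD600 near 0.5, cultures sampled hourly, flipped fraction per protease–substrate barcode pair counted by paired-end Illumina sequencing.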
Variant,area with substrate ENLCFQS,area with substrate ENLDFQS,area with substrate ENLEFQS,area with substrate ENLHFQS,area with substrate ENLIFQS,area with substrate ENLKFQS,area with substrate ENLNFQS,area with substrate ENLPFQS,area with substrate ENLRFQS,area with substrate ENLSFQS,area with substrate ENLVFQS,area with substrate ENLFFQS,area with substrate ENLLFQS,area with substrate ENLTFQS,area with substrate ENLWFQS,area with substrate ENLQFQS,area with substrate ENLMFQS,area with substrate ENLGFQS,area with substrate ENLAFQS
L73S,0.0635,0.0547,0.0639,0.0698,0.0494,0.0619,0.0621,0.0517,0.0548,0.0525,0.0638,–,–,–,–,–,–,–,–
L73T,0.0585,0.0615,0.0597,0.0587,0.0701,0.0691,0.0662,0.0408,–,0.0421,–,0.0704,0.0668,0.0782,0.0586,–,–,–,–
K98M,0.0672,0.0542,–,0.0726,0.0696,–,0.0475,0.0763,0.0637,0.0644,0.0684,–,0.072,–,0.0679,0.0682,–,–,–
T55F,0.0871,0.068,–,0.0556,–,–,0.0473,0.0486,0.113,0.0664,0.0977,0.104,0.0561,–,–,0.0695,0.0678,–,–
D11H,0.057,0.0712,0.0481,0.0678,0.0748,0.0649,0.0624,0.0557,0.0618,0.0684,0.0865,0.0871,–,0.0687,–,0.059,0.0618,–,–
L112R,0.0683,0.0536,0.0725,0.0669,0.0692,0.0788,0.0844,0.071,0.0722,–,–,0.0517,–,–,0.0583,–,–,0.0679,–
F6M,0.0743,0.0696,–,0.0648,–,0.0663,0.076,0.0621,0.0519,0.0474,0.0907,0.0738,–,–,0.0933,0.0353,–,–,–
M125E,0.0663,0.0966,0.0648,0.0517,0.0402,0.0674,0.0724,0.0617,0.0788,0.062,0.0726,0.0827,0.0692,–,0.0693,0.0678,–,–,–
P9K,0.0702,0.0737,0.0586,0.0604,0.0961,0.0597,0.0499,0.0525,0.0786,0.0312,–,0.0763,0.0199,–,0.0651,–,–,–,–
K142D,0.0678,0.0627,0.0647,–,–,0.0626,–,0.0599,–,–,–,0.0644,0.0588,0.0569,–,–,–,–,–
E231Q,–,0.0721,–,0.0583,–,0.0809,0.062,0.0614,–,0.0771,0.0924,0.0824,–,–,0.101,0.103,0.0662,0.0961,0.0553
D137Y,0.0698,0.0544,0.0438,–,0.0597,0.0752,0.0495,0.0646,0.0711,0.0699,0.0702,0.0833,–,–,0.0751,–,–,–,–
Q151G,0.0711,0.0589,–,–,0.0524,0.056,–,0.0699,–,0.0506,0.0725,0.0724,0.071,–,0.0626,–,0.0561,–,–
F38T,0.0887,0.0656,0.0669,0.0607,0.064,0.0664,0.0605,0.0507,0.0641,–,0.0793,0.0752,0.0775,–,0.0587,0.0796,–,–,–
F38N,0.0548,0.0611,0.0713,0.0535,0.0785,0.0561,0.0548,0.0654,0.0657,–,0.0667,0.0647,0.0489,–,–,0.0509,–,0.0561,–
D91Q,0.112,–,–,–,–,0.0656,–,0.064,–,0.0557,–,0.0785,0.0719,–,0.0828,0.0656,–,–,–
D91F,0.0584,0.0645,–,–,0.0871,0.0492,–,–,–,0.0533,–,0.074,0.0717,0.0771,–,–,–,0.0519,–
S135P,0.0637,0.0587,–,0.0711,0.0748,–,0.0742,0.0666,0.0549,0.0608,–,0.0642,0.0545,–,0.0615,0.05,0.0632,–,–
W141R,0.0634,0.0665,0.0538,–,–,–,0.0644,0.0545,0.0417,0.0565,0.0475,0.0578,0.0444,–,0.0453,0.0446,–,0.0703,–
P89H,0.0539,0.0542,–,0.0557,–,–,0.0619,0.0559,0.0772,0.0413,–,0.0889,0.0943,–,0.0468,0.0559,–,–,–
N13Y,0.0973,0.0702,0.0559,–,0.0962,0.0888,0.0527,–,0.0809,0.0713,–,0.0591,0.0733,–,0.0894,–,–,–,–
N45F,0.0617,0.0688,–,0.0571,–,0.0443,0.0691,0.0649,0.053,0.0534,0.0628,0.0623,–,–,0.0542,0.0781,0.0626,0.0709,–
T132Q,0.0704,0.0478,–,0.0644,0.0826,0.0748,0.0659,–,0.0628,0.0408,–,0.0721,0.0793,–,0.0633,–,0.0998,–,–
L61E,0.071,0.0707,0.0335,0.0626,–,0.0732,–,–,–,0.059,0.0762,0.0875,0.0878,0.07,–,0.066,–,–,–
T147P,0.0651,0.0743,0.0703,0.0728,0.0615,0.0645,0.0633,0.0646,0.0633,–,0.0636,0.0923,0.0587,–,0.0536,0.0638,0.0596,0.06,–
R109E,0.0725,0.0623,0.0695,–,–,0.0776,0.0679,0.0669,0.075,0.0567,–,0.0671,–,–,0.025,0.0666,0.0723,–,–
S124F,0.0689,0.0592,0.0648,–,0.0754,0.0607,0.0349,0.0486,–,0.0514,0.0816,0.0637,0.0596,–,–,–,–,0.071,–
S130W,0.0604,0.0587,0.0451,0.0675,0.0734,0.0626,–,0.0586,0.0629,0.065,0.0953,0.0705,0.0529,–,–,0.0698,–,0.0699,–

# Source: the supplement of paper PMC12217912
